Reference: ChEMBL document CHEMBL4888484, “Replenishing the malaria drug discovery pipeline: Screening and hit evaluation of the MMV Hit Generation Library 1 (HGL1) against asexual blood stage Plasmodium falciparum ,using a nano luciferase reporter read-out” (2022)
About 540 (0.36%) of roughly 150,000 compounds showed an effect of 50% or more. The list shows a part of the results.

These compounds were tested on Plasmodium falciparum (assay: Primary screen in NF54 nanoGlo assay, in single point, at 2uM, 72h; a lower Z score goes with more inhibition). Conditions: timepoint 72 hour.
Type: functional, Erythrocyte

| Structure (SMILES) | % Inhibition [%] | Z score |
| --- | --- | --- |
| O=C1COCC(CC2CNc3ccccc32)N1 (stereo unspecified) | -14 | 1.45 |
| COc1cc(CNCc2ccccn2)ccc1OCc1ccccc1Cl | 8 | -0.92 |
| O=C(Cn1nc(-c2ccc(F)cc2)c2cnc3ccccc3c21)Nc1cccc(F)c1 | -2 | 0.36 |
| CCCc1cnc(C)nc1NCCS(=O)(=O)NC | -18 | 1.66 |
| NC(=O)CN1CCC(NC2CCCCCCC2)CC1 | -2 | 0.28 |
| O=C(CCOCC(F)(F)C(F)F)N1CCOCC12CCC2 | -4 | 0.46 |
| CC(=O)N1CC(C(=O)NCc2ccco2)CCC1c1cccc(C(F)(F)F)c1 (stereo unspecified) | -18 | 2.63 |
| O=c1c2cc(Cl)ccc2ncn1Cc1coc(-c2ccccc2)n1 | -7 | 1.28 |
| CCCn1ncc(-c2ccnc(NCC[C@H]3CCCN3C)n2)c1C | -2 | 0.27 |
| CC(C)Oc1ccc([C@H]2CC3(C)NC(=O)C2C(=O)N3)cc1 | -3 | 0.34 |
| Cc1nccc(CNC(=O)NCCOc2ccccc2C)n1 | 1 | -0.21 |
| Cc1cc(CN(C)Cc2csnn2)no1 | -5 | 0.7 |
| CCc1nn(C)cc1CNC(=O)NCc1ccc(C)cc1N(C)C | -10 | 1.8 |
| COc1ccc(NC(=O)CCc2nnc[nH]2)cc1NC(=O)C1CCCCC1 | -12 | 1.66 |
| Cc1ncnc(N(C)Cc2ccnn2C)c1C | -5 | 0.91 |
| Cc1cc(C(=O)N2CCN(c3ncccn3)CC2)c(C)s1 | -6 | 1.15 |
| CC(=O)c1cc(-c2ccc(C(=O)NCCN3CCCCC3)cc2)ccc1O | -10 | 1.43 |
| Cc1csc2c(N3C[C@@H](C)[C@](C)(CN)C3)ncnc12 | -4 | 0.38 |
| CCn1nccc1C(=O)N1CCCCCNC(=O)[C@@H]2CCC[C@@H]21 | -6 | 0.72 |
| COc1cccn(CC(=O)N(C)C[C@H]2CCOC2)c1=O | -2 | 0.22 |
| CCc1cc(CN(C)C(=O)c2cnc(-c3ccc(C)cc3)nc2O)on1 | 0 | 0.01 |
| Cn1ccnc(N2CCC3(CC2)CNC(=O)c2ccccc2O3)c1=O | 2 | -0.4 |

| Structure (SMILES) | % Inhibition [%] | Z score |
| --- | --- | --- |
| C#CCNC(=O)[C@@H]1C(=O)N(Cc2ccccc2)N=C1C | 9 | -1.01 |
| Cn1cc(-c2cc3n(n2)CCC(=O)N3CC(=O)N2CCN(c3ccc(F)cc3)CC2)c2ccccc21 | -2 | 0.46 |
| O=C1NCCCCCN(C(=O)NCCc2ccccc2)[C@H]2CCCC[C@@H]12 | 8 | -1.05 |
| C#CC[C@H](NC(=O)c1csc(C(C)(C)C)n1)C(=O)O | -4 | 0.48 |
| CCc1nccn1CC(=O)N1CC[C@H](C2CCCCC2)C1 | 1 | -0.21 |
| CCCCn1nc(-c2ccccc2)c2nc3ccccc3nc21 | 25 | -2.85 |
| Cn1cc(C(N)=O)c(NCC2CCCCCC2)n1 | -6 | 0.78 |
| O=C(Nc1ccccc1CN1CCCCC1)[C@H]1CC12CCC2 | 1 | -0.24 |
| CC#CCN1C(=O)Nc2ccccc2S1(=O)=O | -6 | 0.8 |
| Cc1cc2c(-c3cc(NCc4ccccn4)nc4[nH]ccc34)ncnc2s1 | -13 | 2.26 |
| CC(C)N1CCN(C(=O)[C@@H]2CC(F)(F)CN2C2CN(S(C)(=O)=O)C2)CC1 | -8 | 0.96 |
| O=C(C1CCN(S(=O)(=O)c2ccc(-c3ccn[nH]3)o2)CC1)N1CCCC1 | -5 | 0.82 |
| CCC(=O)N1CCCN(S(=O)(=O)c2ccc(C)cc2)[C@H]1c1ccc(OC)cc1 | -3 | 0.43 |
| CN(C)c1ccc(CN2C(=O)CN(C3CC3)C2=O)cn1 | 34 | -3.81 |
| O=C(NC1CC1)[C@@H]1CCCN1S(=O)(=O)N1CCCCCC1 | 10 | -0.91 |
| O=C(NCc1ccnc(OC2CCC2)c1)N1CCCO[C@@H](CF)C1 | -3 | 0.35 |
| COc1ccc(N2CCN(c3cc(-n4nc(C)cc4C)ncn3)CC2)cc1 | -8 | 1.02 |
| Cc1cc(CNC(=O)N2CCCC(F)(F)CC2)ccc1F | 0 | 0.01 |
| COc1cc(NC(=O)Cn2c(C)nc(-c3ccccn3)cc2=O)cc(OC)c1 | -8 | 1.04 |
| Cc1ccsc1CN(CCN(C)C)C(=O)NCc1nccn1C(C)C | -1 | 0.16 |
| O=C(COc1ccccc1Br)NCC1(N2CCOCC2)CCCCC1 | -3 | 0.39 |
| Cc1cc(N[C@H]2CC(=O)NC2=O)ncn1 | -18 | 2.33 |

| Structure (SMILES) | % Inhibition [%] | Z score |
| --- | --- | --- |
| COc1cnccc1C(C)NC(=O)NC(c1nc(C)cs1)C1CC1 (stereo unspecified) | -2 | 0.32 |
| CCc1ccc(CN(Cc2c(CC)nn(-c3cccc(C)c3)c2N2CCN(C)CC2)C2CC2)cc1 | -12 | 1.28 |
| COc1cccc(CN2CC3(CCN(C(=O)c4cncn4C)CC3)CC2=O)c1 | -4 | 0.57 |
| O=C(COc1ccc(N2C(=O)C3C4CCC(C4)C3C2=O)cc1)c1ccc(Cl)cc1 (stereo unspecified) | -1 | 0.12 |
| O=C(NCc1nc(C2CC2)no1)Nc1cccc(F)c1 | 7 | -1.38 |
| C/C=C/C(N)=N/Nc1nc2ccccc2s1 | -13 | 1.77 |
| COc1cc2cc(c1)C(=O)NCCCC(=O)N[C@H]1CN(C(=O)c3ccc4c(c3)CCC4)CC[C@@H]1OCc1cccc(c1)O2 | -8 | 1.44 |
| CS(=O)(=O)NC1CCN(C(=O)C2CC=CCC2)C1 (stereo unspecified) | -8 | 1.4 |
| CN(C)C(=O)N1CCN(Cc2ccc3ccccc3c2)[C@@H]2CS(=O)(=O)C[C@@H]21 | -11 | 1.3 |
| COCCCn1c(C)c(C)c(S(=O)(=O)c2ccccc2)c1NC(=O)c1ccc(C)cc1 | -1 | 0.15 |
| CCC(NC(=O)c1c[nH]c(C)cc1=O)C(O)c1ccccc1F (stereo unspecified) | 34 | -0.89 |
| C[C@@H](C(=O)N1CCN(c2ccccc2F)CC1)n1nc2c(cc1=O)CCC2 | 10 | -1.3 |
| COc1cc(-c2noc(C(C)(C)C)n2)ccc1OCc1cc(F)ccc1F | -9 | 1.07 |
| c1ccc(-c2nc[nH]c2C2CCCC2)cc1 | -14 | 2.04 |
| O=C(NC1CCC(C(F)F)CC1)c1ccn(C(F)F)n1 (stereo unspecified) | -2 | 0.37 |
| O=C1c2cccc3cccc(c23)C(=O)N1C(c1ccccc1)c1ccccc1 | -12 | 2.3 |
| O[C@@H](Cc1nc2ccccc2s1)c1ccccc1 | 3 | -0.51 |
| Cc1c(C(=O)N2C[C@H](O)[C@@H](F)C2)cnc2ccnn12 | -1 | 0.24 |
| NC[C@H]1Cc2cc(-c3cccnc3)ccc2O1 | 3 | -0.53 |
| C[C@@H](Cc1ccc(F)c(Br)c1)NS(=O)(=O)CC#N | -7 | 0.64 |
| O=C(NCCN1CCOCC1)C1CCN(c2ncnc3c2nc2n3CCCCC2)CC1 | 1 | -0.22 |
| COc1cccc(CC(=O)Nc2nc(C)no2)c1 | -10 | 0.98 |

| Structure (SMILES) | % Inhibition [%] | Z score |
| --- | --- | --- |
| O=C(NC1CC1)c1ccc2ccccc2c1 | -1 | 0.18 |
| Cc1cc(NC(=O)CN)ccc1Br | -9 | 1.78 |
| O=C(c1ccoc1)N1CC[C@H](Oc2cnccn2)C1 | 6 | -0.69 |
| CN1C[C@H]2CC[C@@H](C1)N(Cc1cccc(OCCO)c1)C2 | -13 | 1.43 |
| COCCN(C)CCCNC1CCC(C(C)(C)C)CC1 (stereo unspecified) | -1 | 0.14 |
| O[C@H](c1ccccc1)c1nc(CCn2cnnn2)n(C2CCCCC2)n1 | -4 | 0.59 |
| CC(C)NC(=O)c1ncn2c1C(=O)N(C1CC1)[C@](C)(C(=O)NCc1ccc(F)cc1)C2 | -6 | 0.56 |
| Cc1nc(C(=O)N[C@@H](C)C(C)(C)C)c2n1CCCC2 | -4 | 0.7 |
| O=C(c1ccc2ccccc2n1)N1CCC[C@H](c2nnc3ccccn23)C1 | 1 | -0.14 |
| Cc1cnc(C)c(NCC[C@H](O)C(C)C)n1 | 0 | 0.04 |
| COc1ccccc1-c1n[nH]c(=O)n1C1CCCC1 | 8 | -1.61 |
| CN(CCc1noc(C2CN(Cc3cc(Cl)ccc3F)C2)n1)S(C)(=O)=O | -9 | 1.46 |
| Cc1ccc(CN2CCn3c(nn(CC4CC4)c3=O)C2)nc1 | -12 | 2.1 |
| CS(=O)(=O)C1CC2CCC(C1)N2C(=O)CCn1cnc2ccccc2c1=O (stereo unspecified) | -29 | 3.71 |
| Oc1cccc(O)c1CNc1ccnc(C2CC2)n1 | 2 | -0.4 |
| Cc1ccc(CNS(=O)(=O)c2cc(-c3ccnn3C(C)C)cs2)cc1 | -11 | 1.35 |
| Cc1ccc2c(c1)NN=C(C(=O)N1CCCCCC1)S2(=O)=O | 29 | -3.7 |
| COC(=O)c1ccc(C(=O)Nc2cccnc2)[nH]1 | -16 | 1.86 |
| Cc1cc(S(=O)(=O)N[C@H](c2cccnc2)C2CC2)sc1C | -12 | 1.51 |
| O[C@H]1Cc2ccccc2[C@H]1n1ccnc1-c1ccccc1Cn1cccn1 | -7 | 0.77 |
| CC(C)[C@@H]1CN(C(=O)c2ccc(-n3cnnc3)nc2)CCCN1CC1CC1 | -4 | 0.62 |
| Cc1nc(N)sc1CC(=O)N(C)CC1CCCC1 | 0 | -0.08 |
